# Hit rate of the full screen: of about 110,000 compounds, about 230 (0.21%) showed an effect of 50% or more. Some of the results follow.
# Target: DPAP1 (Plasmodium falciparum, UniProt Q8IIJ9)
# Assay: primary screen, percent inhibition; read by cleavage of a fluorogenic dipeptide substrate; higher = more effect of the substance
# Set-up: species or system P. falciparum D10 trophozoite lysates; single well
# 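Further: 30 min substrate incubation versus DMSO and 10 µM JCP410 controls.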
# Sequence of DPAP1 (Q8IIJ9 whole entry, looked up): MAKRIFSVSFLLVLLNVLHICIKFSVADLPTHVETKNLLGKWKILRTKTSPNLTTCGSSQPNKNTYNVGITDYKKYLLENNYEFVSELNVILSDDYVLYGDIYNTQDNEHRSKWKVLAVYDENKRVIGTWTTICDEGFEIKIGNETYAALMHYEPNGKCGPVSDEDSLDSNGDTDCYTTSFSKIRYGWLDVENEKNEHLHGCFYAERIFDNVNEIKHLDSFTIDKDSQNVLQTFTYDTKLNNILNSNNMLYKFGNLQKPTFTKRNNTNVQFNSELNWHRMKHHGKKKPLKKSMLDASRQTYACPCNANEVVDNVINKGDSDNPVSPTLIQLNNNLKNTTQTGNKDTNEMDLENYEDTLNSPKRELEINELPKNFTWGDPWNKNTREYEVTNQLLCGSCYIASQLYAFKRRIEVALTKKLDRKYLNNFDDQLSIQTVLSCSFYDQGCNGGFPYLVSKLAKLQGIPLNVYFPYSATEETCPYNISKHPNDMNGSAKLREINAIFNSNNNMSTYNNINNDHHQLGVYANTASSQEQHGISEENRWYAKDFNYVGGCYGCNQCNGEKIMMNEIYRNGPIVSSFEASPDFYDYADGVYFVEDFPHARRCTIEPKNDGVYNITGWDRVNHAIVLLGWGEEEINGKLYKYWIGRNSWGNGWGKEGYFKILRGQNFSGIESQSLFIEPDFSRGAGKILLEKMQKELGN
row,Structure (SMILES),% Inhibition @ 10 uM
1,CCc1cc2c(cc3c(=O)n(CC(=O)N4CCN(c5ccccn5)CC4)ncn32)s1,-1.7%
2,Cc1ccc(OCCCCN2CCNCC2)c(C(C)(C)C)c1,-4.5%
3,CCOc1ccc(Cn2c(S)nc3c2c(=O)n(C)c(=O)n3C)cc1OCC,8.89%
4,COc1cc(OC)c(C(C2=C(O)CC(C)(C)CC2=O)C2C(=O)CC(C)(C)CC2=O)cc1Br (centres unmarked),-3.55%
5,CCOc1ccc(-c2nc(-c3ccc(-c4ccccc4)nc3OC)no2)cc1,-1.33%
6,Cc1nn(Cc2ccccc2)c(C)c1NC(=O)CCC(=O)O,-1.92%
7,Cc1nn(C)cc1C1C(C#N)=C(N)N(c2cccnc2)C2=C1C(=O)CCC2 (centres unmarked),-0.864%
8,Cc1ccc(NC(=O)c2c(-c3ccccc3Cl)noc2C)cc1,1.34%
9,CSc1ccc(CN(C)C2CCN(C)CC2)cc1,3.1%
10,COc1ccc2c(c1)c1nc(SCc3cc(=O)n4ccccc4n3)n(C)c(=O)c1n2C,-1.37%
11,CN(C)CCN(Cc1ccccc1)CC(c1ccccc1)c1ccccc1,-2.95%
12,COc1ccc(OC)c(C2C=C(c3ccc(C(C)C)cc3)Nc3nnnn32)c1 (centres unmarked),1.86%
13,CCO/C(O)=C1\C(C)=NC2=C(C(=O)CC(C)(C)C2)C1c1ccc(C)o1 (centres unmarked),-0.736%
14,CCN1C(=S)NC2CC1(C)Oc1c(O)cc(C(C)(C)C)cc12 (centres unmarked),-6.06%
15,Cc1cc2ncn(/N=C/c3cccnc3)c2cc1C,0.343%
16,COc1ccc(-c2onc(C)c2C)cc1S(=O)(=O)NCCc1ccc(S(N)(=O)=O)cc1,1.39%
17,NC(=O)C1Cc2cc(Cl)ccc2Sc2ccccc21 (centres unmarked),-6.37%
18,O=C(O)C1CCCCC1C(=O)NCc1cccnc1 (centres unmarked),-5.1%
19,O=C1c2ccccc2C(=O)N1CC(=O)n1c2c(c3ccccc31)CCCC2,-2.98%
20,CC(CCc1ccccc1)Nc1nc(Cl)nc(NCCN2CCOCC2)n1 (centres unmarked),-0.597%
21,CCc1s/c(=N\C(C)=O)n(C)c1-c1ccc(OC)cc1,2.03%
22,Cc1ccc(C(=O)C2=C(O)C(=O)N(c3nccs3)C2c2cccc(OCCC(C)C)c2)o1 (centres unmarked),0.214%
23,CCCCCC(NC(C)=O)C(=O)NC(=O)NCc1ccccc1 (centres unmarked),0.565%
24,COc1ccc(C(=O)Nc2ccc(OCc3ccccc3)cc2)cc1,6.24%
25,COc1ccc(CN2CCC(O)CC2)c(OC)c1,-2.7%
26,CCCNC(=O)c1cc(Cl)ccc1NC(=O)c1ccco1,-6.83%

row,Structure (SMILES),% Inhibition @ 10 uM
1,Cc1cc(OCC(=O)Nc2ccc(S(=O)(=O)N3CCCCC3)cc2)cc(C)c1Cl,-2.3%
2,COc1ccc(/C=C2/SC(=O)N(CC(=O)NCCO)C2=O)cc1OC,1.52%
3,CN(C)CCSc1nc2ccccc2[nH]1,-5.28%
4,CCOC(=O)C1C(=O)Oc2ccccc2C1=O (centres unmarked),7.99%
5,N#CCc1ccc(NS(=O)(=O)c2ccc3c(c2)OCCO3)cc1,-9.94%
6,CCOc1ccccc1/C=C1/SC(=O)NC1=O,6.42%
7,CCCN1C(=O)c2oc3cc(C)cc(C)c3c(=O)c2C1c1ccc(C)cc1 (centres unmarked),0.00706%
8,O=Cc1ccc(OC/C=C/COc2ccc(C=O)cc2)cc1,1.67%
9,CCC[C@H](NC(=O)C1(NC(=O)N2CCN(C(C)(C)C)CC2)CCCCC1)C(=O)c1nnc(CC)o1,-4.72%
10,CCN(CC)CCCNC(=O)c1cccc(C)c1,-3.65%
11,COc1cc(NC(=O)[C@@H]2C[C@@H]2c2ccccc2)c(OC)cc1Cl,2.23%
12,CC1(C)Cc2c(sc3nc(SCc4ccc5c(c4)OCO5)nc(N)c23)CO1,-2.34%
13,O=C(CSc1nnc(-c2ccc3c(c2)OCCO3)o1)N1CCCC1,7.64%
14,CCOC(=O)c1cnc2c(C)cc(Cl)cc2c1Cl,2.17%
15,COC(=O)c1nc2n(n1)C(c1ccc(Cl)cc1)C=C(c1ccc(Cl)cc1)N2 (centres unmarked),-3.37%
16,O=c1c(C2Nc3ccccc3N=C3CC(c4ccccc4)CC(O)=C32)coc2ccccc12 (centres unmarked),0.751%
17,O=S(=O)(c1cccs1)n1ccnc1,-1.28%
18,CCN(C(=O)c1sc(N)c(C#N)c1C)C1CCCCC1,-1.2%
19,CCn1c2ccccc2c2cc(CN3CCN(c4cccc(Cl)c4)CC3)ccc21,5.42%
20,COc1ccc2cc3cc(C(=O)NCC4COc5ccccc5O4)sc3nc2c1 (centres unmarked),5.11%
21,COc1cc(CN2CCN(c3cccc(C)c3C)CC2)cc(OC)c1,55.4%
22,Cc1ccc(C)c(NC(=O)CN(CCc2ccccc2)S(C)(=O)=O)c1,-0.0619%
23,CCOC(=O)C1=C(C)OC(N)=C(C#N)C1c1ccc(Cl)c(Cl)c1 (centres unmarked),-3.13%
24,C=CCN1C(=O)NC(=O)/C(=C\c2cccc([N+](=O)[O-])c2)C1=O,-5.65%
25,O=[N+]([O-])c1ccc(-c2n[nH]c(-c3ccccc3)n2)cc1,-4.21%
26,Sc1nnc(CSCc2ccccc2Cl)n1-c1ccccc1,2.18%

row,Structure (SMILES),% Inhibition @ 10 uM
1,CCCCNC(=O)NC1C(NC(=O)NCCCC)N(C)C(=O)N1C (centres unmarked),0.375%
2,CC1(C)Cc2c(sc3nc(SCC(N)=O)n(Cc4ccccc4)c(=O)c23)CO1,-3.9%
3,COc1ccc(OC)c(CNC(=O)c2c(N)nc3sc4c(c3c2C(F)(F)F)CCC4)c1,1.76%
4,CCCn1c(-c2ccccc2)cn2c3c(=O)n(C)c(=O)n(C)c3nc12,0.983%
5,O=C(COc1ccc(Cl)cc1)NCc1nnc(SCC(=O)NCc2ccco2)o1,0.163%
6,O=C(c1cnn2c(C(F)(F)F)cc(-c3ccc(Br)cc3)nc12)N1CCCC1,0.709%
7,Cc1cc(Cl)ccc1OCc1cc(C2C(C#N)=C(N)OC3=C2C(=O)CCC3)sc1C (centres unmarked),-0.25%
8,O=C1CC(c2ccc(F)cc2)N2CCNC2=C1C(=O)Nc1ccccc1 (centres unmarked),6.69%
9,CCCN1CCC(N2CCCCC2C(=O)OCC)CC1 (centres unmarked),-1.81%
10,COc1cc(OC)c(C2C3=C(O)CCCC3=NC(C)=C2C(=O)Nc2ccc(C)cn2)cc1OC (centres unmarked),-0.968%
11,COc1cccc(C2=NN(C(C)=O)C(c3cc4ccccc4nc3Cl)C2)c1OC (centres unmarked),1.97%
12,CCOc1cc2c(cc1OC)C(c1ccc(CC)cc1)NCC2 (centres unmarked),-6.43%
13,CCN1CCC(C#N)(NC(=O)[C@H](Cc2c(F)cccc2F)NC(=O)c2ccc(-c3ccccc3Cl)c(Cl)c2)CC1,-3.48%
14,Cc1ccc2nc(NC3=NC(=O)C(CC(=O)O)N3)nc(C)c2c1 (centres unmarked),-3.33%
15,COc1ccc(C(=O)NCc2cn3ccsc3n2)cc1OC,-4.24%
16,CCc1ccccc1NS(=O)(=O)c1ccc(F)cc1,0.526%
17,Cc1nc2sc3c(O)nnnc3c2c(C)c1Br,0.895%
18,O=c1oc(-c2ccccc2Br)nc2ccccc12,-2.28%
19,CCN(CC)C(=O)CN1C(=O)C2CC=C(Cl)CC2C1=O (centres unmarked),0.674%
20,CCOC(=O)c1cnc(-c2ccccc2)nc1N(C)C,1.04%
21,COC(=O)c1cc2sc(Cl)cc2n1Cc1nc(-c2ccccc2)oc1C,-12.7%
22,CCOc1cc(CN2CCCC(C(=O)N(CC)CC)C2)ccc1O (centres unmarked),0.317%
23,COc1ccc(OCCCC(=O)Nc2ccc(Cl)cc2C)cc1,3.8%
24,CC(C)CCNC(=O)c1cnc(N2CCCC2)nc1,-6.91%
25,O=C(NCc1cccnc1)c1cc2nc(-c3ccc(Cl)s3)cc(C(F)(F)F)n2n1,-0.994%
26,Cc1ccc(S(=O)(=O)c2c(O)nc3cc(C(=O)O)ccc3c2O)cc1,2.97%

row,Structure (SMILES),% Inhibition @ 10 uM
1,CCOC(=O)c1c(C)[nH]c(C)c1S(=O)(=O)N(C)CC(=O)N(C)Cc1ccccc1,1.05%
2,CCOc1ccc(S(=O)(=O)N(CC(=O)NC)c2ccc(C)cc2)cc1,-3.25%
3,c1cc(C2=NCCO2)cc(C2=NCCO2)c1,-5.47%
4,COc1ccc(C2=NC3(CCN(C(=O)c4ccccc4F)CC3)NC2=O)cc1,2.79%
5,CCCCOc1ccc(-c2nc(/C=N/c3cccnc3)c(O)o2)cc1,10.7%
6,NS(=O)(=O)c1ccc(NC(=O)/C=C/C(=O)O)cc1,-1.45%
7,C/N=C1\S/C(=C\c2ccc(-c3cccc(C(=O)O)c3)o2)C(=O)N1C,0.611%
8,Cc1ccc(-n2nc3c([n+]2[O-])CCc2nonc2-3)cc1,-4%
9,CCNC(=O)C1CCN(c2nn3cc(-c4ccc(C)cc4)nc3s2)CC1,-1.41%
10,OCc1ccccc1CN1CCCCC1,-4.67%
11,Cc1cc(C)nc(SCC(=O)Nc2ccccc2C(C)C)n1,1.28%
12,Cc1cc2nc(COc3ccc(C)c(C)c3)cc(=O)n2o1,-3.95%
13,CO/C(O)=C1\C(C)=NC(=S)NC1c1cccc(Br)c1 (centres unmarked),26.7%
14,O=C(Cc1nnc(-c2ccc(Br)cc2)o1)NC1CCCCCC1,-6.6%
15,COc1ccc(CCNS(=O)(=O)c2ccc3nc(O)ccc3c2)cc1OC,2.19%
16,O=C(NCc1ccccn1)Nc1cccc(Cl)c1,-8.64%
17,CN(CCNC(=O)CCn1nc(-c2ccc(Cl)cc2)ccc1=O)Cc1ccccc1,1.62%
18,CCCCNC(=O)c1ccc(CS(=O)(=O)c2ccccc2C)o1,-3.09%
19,CCOC(=O)c1cnc(SCC(=O)N(C)C2CCCCC2)nc1N,-2.83%
20,CCn1c(C(=O)NCCc2ccccc2)cc2oc3ccccc3c21,-3.96%
21,COc1ccc(Br)cc1CN1C(=O)c2ccccc2C1C(=O)NC1CCC(C)CC1 (centres unmarked),6.82%
22,O=S(=O)(Nc1ccc(-c2cn3cccnc3n2)cc1)c1cccc2ccccc12,-3.45%
23,N=c1n(CCO)c2ccccc2n1CCOc1ccc(Br)cc1,-11.4%

# Reference: paper PMC6919601, “Identification of Plasmodium dipeptidyl aminopeptidase allosteric inhibitors by high throughput screening” (PLoS ONE, 2019)
